Assay results from PubChem BioAssay AID686979 (National Center for Advancing Translational Sciences (NCATS), 2013).
Screen size: about 420,000 compounds; about 50,000 (12%) were called active. The inconclusive results got no clear call from the source; some entries with a clear call stand among them for comparison. Calls come from the whole dose curve; as a rule, active = well fitted inhibition curve with a large enough effect; inconclusive = small, poorly fitted or top-dose-only effect; inactive = flat fitted curve, though single readings scatter. Potencies of inconclusive entries are left out as doubtful fits.

test: qHTS for Inhibitors of human tyrosyl-DNA phosphodiesterase 1 (TDP1): qHTS in cells in presence of CPT; conditions: chicken DT40 Tdp1-/-;hTDP1 cells + 20 nM CPT, ATP luminescence, 48 h; activity change, negative = growth inhibition: at 46.2 µM (top of the series); note: nearly all actives have a fitted effect of over 55% in size
In short: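 Cell growth measured by CellTiter-Glo luminescence after a minimum 48 h, 37 C compound exposure with 20 nM CPT in Tdp1-knockout DT40 cells stably expressing hTDP1, seeded 400/well; qHTS titration format.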
% is set by controls: 0 for no effect and ±100 for the full control effect; potency is the fitted concentration of half-maximal effect; tags give direction and shape of the fitted curve.

Compound | activity change, negative = growth inhibition | Potency
COc1ccc(C(C(=O)NC(C)(C)C)N(CC2CCCO2)C(=O)CCC(=O)Nc2cc(C)on2)cc1 (stereo not given) | inactive: -0.673% | 
O=C(COC(=O)c1cc[n+]([O-])cc1)Nc1ccc(Br)cc1 | inactive: -0.69% | 
COc1ccc(C(=O)Nc2ccccc2-c2nc3ccccc3s2)c(OC)c1 |  | active: 18.4 µM
O=C(CNC(=O)c1ccc2c(c1)OCCO2)N=Nc1c(O)[nH]c2ccccc12 | inactive: -15.6% | 
CCOc1cc(C2Sc3ccccc3NC3=C2C(=O)c2ccccc23)ccc1O (stereo not given) |  | inconclusive [inhibitor, single point]
Cc1ccc(S(=O)(=O)N2CCC(C(=O)NCc3ccccc3CN3CCCC3)CC2)cc1C |  | inconclusive [inhibitor, single point]
Cc1ccc2nc(C3CCCN(C(=S)Nc4cccc(C)c4C)C3)[nH]c2c1 (stereo not given) |  | inconclusive [inhibitor, single point]
CCOC(=O)[C@]12CCC=C1N(Cc1ccc(Cl)cc1Cl)C(=O)[C@H](CC(=O)NCc1ccc(OC)c(OC)c1)C2 |  | active: 16.4 µM
Nc1nnc(CC(=O)N/N=C/c2ccccc2OCc2ccccc2F)s1 |  | inconclusive [inhibitor, single point]
CCn1c(SCC(=O)Nc2ccc(C(C)=O)cc2)nc2c([nH]c3ccccc32)c1=O |  | inconclusive [inhibitor, single point]
CCOC(=O)c1ccccc1NC(=O)CSc1nnc(Cc2cccn2C)n1-c1ccc(C)cc1 |  | inconclusive [inhibitor, single point]
COc1cc(C#Cc2c(-c3cncn3C)n(C)c3ccc(-c4ccc5cc[nH]c5c4)cc23)cc(OC)c1 |  | active: 18.4 µM
CCOC(=O)c1ccc(NC(=O)CC2C(=O)N(c3ccc(F)cc3)C(=O)N2Cc2ccc(C)cc2)cc1 (stereo not given) |  | active: 16.4 µM
CC(Oc1ccc(Cl)cc1Cl)C(=O)NCCCn1ccnc1 (stereo not given) |  | inconclusive [inhibitor, single point]
C[C@@H](C(=O)Nc1ccc2ccccc2c1)[C@@H]1C[C@@]1(C)[C@@H](NC(=O)c1cccnc1)c1ccccc1 | inactive: -18.3% | 
CCOC(=O)c1cnc2ccc(Cl)cc2c1Nc1ccc(OCC)cc1 |  | inconclusive [inhibitor, single point]
CCN(CC)C(=O)N1CCC(NC(=O)c2ccc(C(C)(C)C)cc2)CC1 |  | inconclusive [inhibitor, single point]
CCOC(=O)c1ccc(NC(=O)c2cccnc2)cc1 |  | inconclusive [inhibitor, single point]
CCOc1ccccc1CNC(=O)CCc1cn(CC)c2ccccc12 |  | inconclusive [inhibitor, single point]
Cn1c(=O)n(C)c2cc([N+](=O)[O-])c(N3CCN(C(=O)c4ccccc4Br)CC3)cc21 |  | inconclusive [inhibitor, single point]

Compound | activity change, negative = growth inhibition | Potency
O=C(CCl)N(C/C=C/c1ccccc1)c1ccc2c(c1)OCCO2 |  | active: 3.66 µM
COc1cc(OC)cc(-c2c(C#Cc3ccsc3)c3cc(-c4ccc(N(C)C)nc4)ccc3n2C)c1 |  | inconclusive [inhibitor, partial curve]
CCCCOc1ccc(/C=C/C(=O)Nc2ccc([N+](=O)[O-])cc2C)cc1 |  | inconclusive [inhibitor, partial curve, poor fit]
OC(c1ccc(Cl)c(F)c1)c1ncc(-c2ccccc2C(F)(F)F)[nH]1 (stereo not given) |  | inconclusive [inhibitor, single point]
Nc1ccc(CC(N)c2csc(Nc3cc(Oc4ccccc4)ncn3)n2)cc1 (stereo not given) |  | inconclusive [inhibitor, single point]
CCOC(=S)SCC(=O)Nc1nc(-c2ccccc2)cs1 |  | active: 2.91 µM
CCOc1ccc(-c2cc3nc(C4CCN(C(=O)OC(C)(C)C)CC4)c(C(=O)O)cn3n2)cc1 |  | inconclusive [inhibitor, single point]
CC(CN1CCN(CCOCCO)CC1)CN1c2ccccc2Sc2ccc(Cl)cc21 (stereo not given) |  | inconclusive [inhibitor, single point]
COc1c(Cl)cc(Cl)cc1/C=N/NC(=O)c1nnn(-c2nonc2N)c1CN1CCC(C)CC1 |  | active: 14.6 µM
COc1ccc(/C=C/c2c(-c3ccc(OC)cc3)oc(=O)c3cc(OC)c(OC)cc23)cc1 |  | inconclusive [inhibitor, single point]
CCC1(CC)NC(=O)N(CC(=O)Nc2ccc(OCc3ccccc3)cc2)C1=O |  | inconclusive [inhibitor, single point]
COc1ccc(C(=O)N2CCCC(N3CCN(c4ccccc4F)CC3)C2)c(OC)n1 (stereo not given) |  | inconclusive [inhibitor, single point]
CCN(CC)S(=O)(=O)c1ccc(OC)c(NC(=O)CSc2cc(Cl)ccc2Cl)c1 |  | inconclusive [inhibitor, single point]
CCC(CC)C(=O)c1c[nH]c(C(=O)NCc2ccncc2)c1 |  | inconclusive [inhibitor, full curve, poor fit]
CC(=O)c1ccc(NC(=O)CCc2nc(-c3ccc(C)cc3)no2)cc1 |  | inconclusive [inhibitor, single point]
O=C(Oc1ccccc1)N1CCC[C@@]2(CCN(c3ccncc3)C2)C1 |  | inconclusive [inhibitor, single point]
COc1ccc2[nH]cc(CCNC(=O)C3CCCO3)c2c1 (stereo not given) |  | inconclusive [inhibitor, partial curve]
O=C(CCC(=O)N1CCSc2ccccc21)NC1CCCCC1 |  | inconclusive [inhibitor, single point]
CC(C)OCCCNC(=O)CSc1c2c(nc3ccc(Cl)cc13)CCCC2 |  | inconclusive [inhibitor, single point]
Cc1cccn2c(=O)cc(COc3cccc(NC(=O)COc4ccccc4)c3)nc12 |  | inconclusive [inhibitor, full curve, poor fit]
